Measured values taken from patent US12065505B2, “Antibodies and antigen binding peptides for factor XIa inhibitors and uses thereof” (Bristol-Myers Squibb Company, priority 2021, dated 2024).
Where two headings read alike, the source gives them in different places.

Key:
[1] = SPR (Biacore) Protein A mAb capture, Compound A injected; conditions: 37° C., binding to Compound A, for rank ordering only
Protocol: The binding of hybridoma expressed 26D5 parent mAb (VH SEQ ID NO: 83 and VL SEQ ID NO: 98 in IgG1 f format)(P1-072224) and affinity matured mAbs to Compound A was examined by SPR (Biacore™) using a protein A capture method. The running buffer was 1×PBS (phosphate buffered saline, pH 7.4) with 0.05% Tween 20 and 2% DMSO. Binding experiments were carried out at 37° C. Protein A was coated on a CM5 S-series sensor chip (Cytiva, Cat. No. 29149603) at high density (2000+ RUs of protein A). The immobilization of protein A was carried out using the standard amine coupling immobilization procedure recommended by the manufacturer. The affinity matured antibody was then captured at a concentration of 2 ug/mL on the protein A surface at a flow rate of 3 uL/min for 2 minutes. Compound A was then injected over the captured antibody at concentrations spanning 100-3 nM (100, 50, 25, 12.5, 6.25, 3.125 nM) (FIG. 10) and for screening concentrations spanning 100-3 nM (100, 33, 11 nM) for 2 minutes at a flow rate of 100 uL/min and allowed to dissociate for at least 450 seconds. The chip surface was regenerated after each cycle with a 40 second pulse of 10 mM Glycine, pH 1.5. Background binding to the protein A surface alone was used to subtract non-specific binding. All experiments were run on a Biacore T200 surface plasmon resonance instrument using Biacore T200 Control software v. 2. Data analysis was performed using Biacore T200 evaluation software v 3.1. Apparent affinities were determined for rank ordering only since dissociation rates were too slow to be measured by Biacore. The names of the mAbs in Table 10 refer to mAbs having the H and L chain sequences of the corresponding Fabs in Table 3 in an IgG1f format.

[2] = Competitive TR-FRET assay modified for mAbs and Fabs (T0, T24, T48); assay type: binding; conditions: 37° C.
Protocol: A competitive TR-FRET (time-resolved fluorescence resonance energy transfer) assay was developed to rank-order the dissociation of α-Compound A mAbs from Compound A as equilibrium is reached at 37° C. The assay buffer was HBS-N (10 mM HEPES, 150 mM NaCl, pH 7.4; GE Healthcare), 0.1% (w/v) BSA (bovine serum albumin; Sigma), 2% DMSO (dimethyl sulfoxide; Sigma). All reagents were prepared in assay buffer and dispensed in equal volumes into white 384 microplates with final volume of 20 μl per well at the following final concentrations: 4 nM COMPOUND 5, the biotinylated analog of COMPOUND 2, a 100 0.1 nM 7-pt titration of human α-Compound A antibodies, 0.1 nM europium-labeled α-mouse IgG (LANCE Eu-W1024; PerkinElmer), 5 nM streptavidin-D2 (Cisbio), and 4 nM mAb 26D5 VH_A10G_Y33A_S53P_M89V_G95A; VK_W32N_H38Q (P1-075621, the second-round optimization parent 26D5-295-B08 formatted with mouse IgG Fc). COMPOUND 5 and α-Compound A antibody titrations were added first to the microplate, and were subjected to an initial incubation at 37° C., 1000 rpm, for one hour to facilitate antibody binding to the compound. After the initial incubation period, the europium α-mouse IgG, streptavidin-D2, and 26D5-mouse IgG (P1-075621) were added sequentially, then the plate was returned to 37° C., 1000 rpm incubation. Microplates were read using a Perkin Elmer EnVision plate reader, and the measured FRET signal was defined as [665 nm]/[620 nm]*10,000. Microplates were read at 30 minutes (T0) and after 24 hour (T24) intervals. For each antibody titration, the FRET signal was converted to % Inhibition relative to wells without α-Compound A antibody: (100 ((FRET at [antibody concentration]/FRET at 0 nM)*100). The % inhibition antibody titrations were plotted using TIBCO Spotfire (v.7), and the IC50 was determined using a 4-parameter model curve fit. The IC50s at each timepoint were reported, as well as the IC50 curve shift relative to T0. An IC50 curve shift indicated α-Compound A antibody dissociation from the biotinylated compound as the assay reached equilibrium, which subsequently allowed 26D5-mouse IgG1 (P1-075621) competitor to bind and generate the FRET signal detected in the assay.
The competitive TR-FRET assay defined above was also modified to assess optimized 26D5 antibody progeny that were reformatted as Fabs. The α-Compound A antibody and Fab titration series were extended to 250 0.244 nM (11-pt titration), and replicates of each concentration were collected in quadruplicate. The assay incubation was extended to include an additional 48 hr timepoint to ensure equilibrium was reached, and T48 hr IC50 and IC50 shifts were reported. The % inhibition titrations were plotted in Graphpad Prism (v.8) and fit to a 4-parameter model. All other experimental setup conditions were otherwise identical to the antibody TF-FRET assay.
Competitive FRET data collected for affinity-optimized α-Compound A 26D5 progeny comparing human antibodies and Fabs are shown in FIG. 14 and Table 13. Each panel represents a single α-Compound A sequence, with antibody (mAb, solid lines, circles) and Fab (dotted lines, triangles) formats overlaid. […] The names of the mAbs/Fabs in Table 13 refer to the corresponding sequences in Tables 1-3. All mAbs listed in Table 13 were in a human IgG1f/LC kappa format.

B1: 26D5-75616-348-F10-mAb: human IgG1f/kappa mAb; VH SEQ ID NO: 55, VL SEQ ID NO: 88; heavy chain SEQ ID NO: 201 (antibody)
heavy: EVQLVESGGGLIQPGGSLRLSCAASGFTVSSNAMSWVRQAPGKGLEWVSFIYPGGRTYYADSVKGRFTISRDNSKNTLYLQMNSLRAEDTAVYYCARAEFGLEDIWGQGTLVTVSSASTKGPSVFPLAPSSKSTSGGTAALGCLVKDYFPEPVTVSWNSGALTSGVHTFPAVLQSSGLYSLSSVVTVPSSSLGTQTYICNVNHKPSNTKVDKRV[no letters for human IgG1 Fc]
VL: DIQMTQSPSSVSASVGDRVTITCRASQGISSNLAWYQQKPGKAPKLLIYAASSLQSGVPSRFSGSGSGTDFTLTISSLQPEDFATYYCQQANSFPLTFGGGTKVEIK
Kd ([1]; apparent affinity, read-out: KD): < 0.03 nM
Ka ([1]; apparent): 1.7e+06 M⁻¹ s⁻¹
Kd ([1]; apparent): <5e-05 s⁻¹
IC50 ([2]; 24 hr, read-out: T24 hr IC50): 2.5 nM
IC50 ([2]; 48 hr, read-out: T48 hr IC50): 2.8 nM
T24 hr IC50 shift ([2]; IC50 shift at 24 hr relative to T0): 1.1 nM
T48 hr IC50 shift ([2]; IC50 shift at 48 hr relative to T0): 1.4 nM
IC50 ([2]; read at 30 minutes (T0), competitor 26D5-mouse IgG (P1-075621), read-out: T0 IC50): 1.4 nM
